# Source: paper PMC4336329 (PLoS ONE, 2015)
# The campaign covered roughly 310,000 compounds. About 14,000 (4.5%) showed an effect of 50% or more. The effect is printed as a negative number. Some of the results follow.
# Molecular target: human ether-à-go-go-related gene (hERG) potassium channel (human, UniProt Q12809)
# Assay: primary screen, population patch clamp on CHO cells stably expressing hERG
# 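Further: peak tail current of the secondary pulse compared with the same well before compound.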
# Chain of human ether-à-go-go-related gene (hERG) potassium channel (Q12809 whole entry, looked up): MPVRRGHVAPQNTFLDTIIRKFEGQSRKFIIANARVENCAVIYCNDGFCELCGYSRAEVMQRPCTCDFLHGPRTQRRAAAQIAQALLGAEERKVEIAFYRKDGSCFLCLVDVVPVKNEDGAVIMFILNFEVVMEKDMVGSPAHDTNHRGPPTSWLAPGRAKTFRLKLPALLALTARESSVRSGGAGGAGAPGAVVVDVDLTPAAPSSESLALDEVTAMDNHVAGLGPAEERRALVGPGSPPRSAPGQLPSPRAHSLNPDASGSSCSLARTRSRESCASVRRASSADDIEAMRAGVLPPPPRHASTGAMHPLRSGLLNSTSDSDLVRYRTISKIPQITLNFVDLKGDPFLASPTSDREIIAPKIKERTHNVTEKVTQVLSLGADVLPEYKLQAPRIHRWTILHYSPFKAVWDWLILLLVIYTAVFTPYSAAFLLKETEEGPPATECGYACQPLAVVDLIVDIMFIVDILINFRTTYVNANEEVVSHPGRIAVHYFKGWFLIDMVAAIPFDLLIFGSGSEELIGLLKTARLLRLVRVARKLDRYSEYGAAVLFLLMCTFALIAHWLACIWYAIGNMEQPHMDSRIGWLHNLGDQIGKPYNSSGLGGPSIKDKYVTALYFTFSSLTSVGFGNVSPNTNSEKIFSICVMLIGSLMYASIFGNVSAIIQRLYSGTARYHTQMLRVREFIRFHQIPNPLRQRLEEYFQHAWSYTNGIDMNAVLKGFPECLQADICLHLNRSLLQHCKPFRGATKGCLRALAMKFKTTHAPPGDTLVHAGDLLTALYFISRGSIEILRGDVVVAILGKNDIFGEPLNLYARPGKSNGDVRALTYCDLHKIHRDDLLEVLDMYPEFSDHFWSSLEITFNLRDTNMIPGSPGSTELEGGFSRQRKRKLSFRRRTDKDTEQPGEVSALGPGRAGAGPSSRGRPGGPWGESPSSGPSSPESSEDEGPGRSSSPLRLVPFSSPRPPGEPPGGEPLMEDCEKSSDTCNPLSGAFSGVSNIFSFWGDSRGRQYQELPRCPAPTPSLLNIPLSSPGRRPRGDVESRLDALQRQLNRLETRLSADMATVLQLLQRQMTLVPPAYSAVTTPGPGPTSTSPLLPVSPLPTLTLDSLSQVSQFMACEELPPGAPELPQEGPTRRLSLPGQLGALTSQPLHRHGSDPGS
row,SMILES,"hERG current change (%, negative = inhibition) at 10uM"
1,C=C(C)Cc1c(C)c(C#N)c2nc3ccccc3n2c1NCCCN(C)C,-34.2%
2,COc1ccc(/C=N/S(=O)(=O)c2ccc(C)cc2)cc1,25.9%
3,O=[N+]([O-])c1ccc(O)c(/C=N/Nc2ccccn2)c1,12%
4,NC(=S)NNC(=O)COc1ccccc1O,7.21%
5,CCc1cccc(NC(=O)CN(c2ccc(C)cc2)S(=O)(=O)c2c(C)noc2C)c1,8.14%
6,Cc1cc(-c2ccccc2)cc(-c2ccccc2)[n+]1C.[Cl-],-13.6%
7,CN(CC(O)COc1ccc(OCC(O)CN(C)C2CCCCC2)cc1)C1CCCCC1 (stereo not drawn),8.06%
8,CCOC(=O)c1ccc(NC(=O)Nc2cc(C)cc(C)n2)cc1,11.5%
9,O=C(Cc1cccs1)N/N=C/C(Br)=C/c1ccccc1,10.1%
10,Cc1ccc(S(=O)(=O)N2CCN(S(C)(=O)=O)C2)cc1,9.11%
11,CCOC(=O)c1oc2ccccc2c1COC(=O)CNC(=O)c1cccc(C)c1,3.66%
12,COc1cc(NC(=O)CSCc2ccc(Cl)cc2Cl)c(C(=O)O)cc1OC,11.2%
13,O=C(NCc1ccccc1C(F)(F)F)C1CC(c2ccccc2C(F)(F)F)=NO1 (stereo not drawn),-9.21%
14,COc1cccc(C(C(=O)NCC2CCCO2)N(C(=O)Cn2nnc3ccccc32)c2ccc(NC(C)=O)cc2)c1 (stereo not drawn),21.9%
15,Cc1ccc(-c2c(C)nn3c(N4CCOCC4)cc(C)nc23)cc1,12%
16,CCCCCNC(=O)CC1Nc2c3ccccc3nc(=S)n2C1=O (stereo not drawn),-0.562%
17,COc1ccc(NC(=O)CN(Cc2ccco2)Cc2ccco2)cc1S(=O)(=O)N1CCCCC1,-31.4%
18,NCCCC[C@@H]1NC(=O)c2cc([N+](=O)[O-])cc(I)c2SC[C@@H](C(=O)NCC(N)=O)NC(=O)CNC1=O,10.2%
19,COC(=O)C1=C(COc2ccc(F)cc2)NC(=O)NC1c1ccc(C)cc1C (stereo not drawn),-12.1%
20,CC(C)(C)c1nc(N2CCN(C(=O)c3ccco3)CC2)c2nnn(Cc3ccccc3Cl)c2n1,11.7%
21,O=C(CSc1nc(COc2ccccc2)nc2ccccc12)NC1CCCC1,-15.5%
22,Cc1ccc(Cn2nc(C)cc2C(=O)Nc2ccccc2Cl)cc1,13.2%

row,SMILES,"hERG current change (%, negative = inhibition) at 10uM"
1,O=C(c1cc2cc3ccc(Cl)cc3nc2o1)N1CCCCCC1,0.782%
2,OCCC1CN(Cc2nc3ccccc3s2)CCN1CCc1ccccc1 (stereo not drawn),-77.7%
3,COC(=O)N1CC(c2ccccc2)CC1=O (stereo not drawn),9.18%
4,CCOC(=O)CSc1nc2ccccc2c(=O)n1CC1CCC(C(=O)NCc2ccco2)CC1 (stereo not drawn),-18.9%
5,C[C@@H](C(=O)Nc1cccnc1)n1c(=O)[nH]c2ccccc2c1=O,12.9%
6,CCCc1nc(SCC(=O)N2CCOCC2)c2c(C)c(C)sc2n1,-26.1%
7,CN(C)C(=O)CSc1ccc(S(=O)(=O)N2CCOCC2)cn1,10.6%
8,COC(=O)c1ccc(COc2ccc(-c3nn[nH]n3)cc2)cc1,-0.804%
9,CCOC(=O)C1CCN(C(=O)COC(=O)c2oc3ccc(OC)cc3c2C)CC1,-55.6%
10,CC(=O)c1ccc(-n2c(C)c(C(C)=O)c3cc(O)ccc32)cc1,8.94%
11,CCc1c(C)sc(NC(=O)c2cccs2)c1C#N,-1.68%
12,CCOC(=O)c1c(CSc2ccccc2)oc2cc(Br)c(O)c(CN(C)C)c12.Cl,8.53%
13,Cc1ccc(-c2cc(C(=O)Nc3nn[nH]n3)c3ccccc3n2)c(C)c1,1.91%
14,Cc1ccc2c(=O)oc(N(C)C)nc2c1,4.34%
15,COc1ccc(OC)c(S(=O)(=O)Nc2cc3c4c(c2)C(C)C(=O)N4CCC3)c1 (stereo not drawn),1.75%
16,Cc1ccc(-c2cc(C(=O)N3CC4(C)CC3CC(C)(C)C4)no2)cc1 (stereo not drawn),-2.1%
17,Cc1cccc(NC(=O)c2ccc(OCC(=O)NCc3ccccc3)cc2)c1C,2.51%
18,CCC(=O)Nc1cc(C(F)(F)F)ccc1N1CCOCC1,1.09%
19,O=S(=O)(NC1CC1)c1cccc(S(=O)(=O)N2CCCC2)c1,-1.49%
20,CC(=O)Nc1cc(C(=O)OCc2cccc([N+](=O)[O-])c2)ccc1C,-4.3%
21,CC(Sc1nnc(C2CC2)n1C1CC1)C(=O)Nc1cccc(S(=O)(=O)N2CCOCC2)c1 (stereo not drawn),-11.8%
22,CCOCCCNS(=O)(=O)c1ccc(-n2cnnn2)c(OC)c1,-1.04%

row,SMILES,"hERG current change (%, negative = inhibition) at 10uM"
1,Cc1ccc(S(=O)(=O)c2nc(-c3ccco3)oc2SC(C)C)cc1,-20.4%
2,COc1ccc(CNC(=O)C2CC(=O)N(c3ccc(OCC(=O)N4CCCCC4)cc3)C2)cc1 (stereo not drawn),-0.626%
3,O=C(O)c1cc(NN=Nc2cccc([N+](=O)[O-])c2)cc([N+](=O)[O-])c1,2.18%
4,CC1CCCC(C)N1CCCNC(=O)Cn1ncc2c([nH]c3ccccc32)c1=O (stereo not drawn),12.3%
5,O=C1CSC(c2ccco2)N1 (stereo not drawn),22.9%
6,O=C(CN1CCN(S(=O)(=O)c2ccccc2F)CC1)Nc1ccccc1C(=O)c1ccccc1,-22.8%
7,CCN(CCCNC(=O)c1[nH]c(C)c(C(C)=O)c1C)c1cccc(C)c1,-18.2%
8,CCn1nnc(-c2ccccc2NC(=O)c2cc(OC)c(OC)c(OC)c2)n1,4.71%
9,Cc1ccc(S(=O)(=O)Cn2nnnc2C(CC(C)C)N2CCN(c3ccc(F)cc3)CC2)cc1 (stereo not drawn),0.86%
10,Cc1cc(C(F)(F)F)nc(NCc2cccnc2)n1,14.9%
11,CC1CCN(CCc2nc3cc(NS(=O)(=O)c4ccc(F)cc4)ccc3n2C)CC1,-70.8%
12,Cn1cncc1C#Cc1c(C=O)n(C)c2ccccc12,19.8%
13,CC(C)Oc1cccc(C(=O)C2CCCN(C(=O)c3ccnn3C)C2)c1 (stereo not drawn),2.49%
14,CCN(CC(=O)NC(=O)NCc1ccccc1)Cc1ccccc1,-20.6%
15,CN(C)c1nc(N)nc(CSc2ncc(Cl)cc2Cl)n1,-3.36%
16,CC(C)CNC(=S)N1CCN(c2nc(-c3ccc(Cl)cc3)cs2)CC1,17.2%
17,COc1cc(C2C(C(C)=O)=C(O)C(=O)N2c2ccc(Br)cn2)ccc1O (stereo not drawn),-8.43%
18,Cn1c(=O)c2c(nc(Oc3ccc4ccccc4c3)n2C)n(C)c1=O,6.03%
19,CC(=O)c1ccccc1NC(=O)c1ccc(N2CCCC2=O)cc1,-1.78%
20,Fc1ccc(NCc2cccnc2)cc1F,12.2%
21,Cc1ccc(-n2nc(C(=O)N3CCOCC3)cc2-c2ccc(Cl)cc2)cc1,-83.3%
22,O=C(O)c1ccccc1C(=O)Nc1ccccn1,6.84%

row,SMILES,"hERG current change (%, negative = inhibition) at 10uM"
1,O=C(Nc1ccon1)c1ccc(Cl)s1,10.4%
2,O=C(O)C(=O)O.Oc1ccccc1CN1CCN(C(O)(c2ccccc2)c2ccccc2)CC1,-46%
3,Cc1cc2c(c(SCC(N)=O)n1)C(=O)OC2,14.9%
4,OC(CN1CCN(c2ccccc2Cl)CC1)c1ccccc1 (stereo not drawn),-42.3%
5,O=C(COC(=O)CC1Sc2ccccc2NC1=O)NCc1ccccc1 (stereo not drawn),-21.4%
6,O=C(Nc1nn[nH]n1)c1cccc([N+](=O)[O-])c1,-9.99%
7,Oc1ccc(N=Nc2n[nH]c(-c3ccccc3)n2)cc1,9.94%
8,Nc1c(C(=O)NCCN2CCOCC2)c2nc3ccccc3nc2n1-c1ccc2c(c1)OCO2,-33.5%
9,Cc1sc2c(c1C)CN(Cc1ccncc1)CN2C(=O)c1ccco1,-37.5%
10,C[C@]12CC[C@H](O)C[C@H]1CC[C@@H]1[C@@H]2C[C@@H](O)[C@]2(C)[C@@H](C3=CC(=O)OC3)CC[C@]12O,18.3%
11,C/C=C(/C)C(=O)OC1Cc2c(ccc3ccc(=O)oc23)OC1(C)C (stereo not drawn),-18%
12,COC(=O)c1cc(NC(=O)c2ccccc2)c(=O)oc1C,19.4%
13,COc1ccc(C(=O)c2nccc3cc(OC)c(OC)cc23)cc1OC,6.21%
14,O=C(O)CCC1(c2ccccc2)NC(=O)NC1=O (stereo not drawn),2.53%
15,Cn1nnnc1SCC(=O)Nc1ccc(Cl)cn1,19%
16,CCOC(=O)c1cnc(-n2cc(C)cn2)nc1Nc1ccccc1OCC,14%
17,O=C(Nc1ccccc1)c1ccccc1NC(=O)c1ccccc1C(=O)O,8.6%
18,Cc1cc(C(=O)O[C@H]2[C@H](Cc3ccccc3)NS(=O)(=O)[C@H]3C[C@@H]4C=C[C@]23O4)ccc1[N+](=O)[O-],-1.67%
19,Cc1ccc(S(=O)(=O)Nc2nc3ccc(N)cc3s2)cc1,-1.87%
20,Cc1ccc(S(=O)(=O)N2CC(O)CC2C(=O)Nc2ccc3c(c2)CCC3)cc1 (stereo not drawn),-12.3%
21,C=CCN1C(=O)C2(NNc3ccccc3O2)c2ccccc21 (stereo not drawn),14.8%
